Where two headings read alike, the source gives them in different places.
Columns and labels:
patients with R/R AML = experiment: Phase 1 dose-escalation study 2215-CL-0101; type: in vivo; conditions: for CR+CRh rate: FLT3-mutated patients
hERG currents = hERG currents (Homo sapiens, UniProt Q12809); experiment: in vitro block of hERG currents; type: cell-based; conditions: IC50, blocking hERG currents
[1] = tested on: patients with R/R AML who received 120 mg gilteritinib, regardless of FLT3 status; conditions: human, in vivo
[2] = target: leukocyte tyrosine kinase (LTK) (Homo sapiens, UniProt P29376); experiment: in vitro pharmacology assay, kinase inhibition; type: biochemical
CYP3A4 = experiment: drug interactions / metabolism; type: in vivo, human
F691 TKD mutation = conditions: cited from earlier work
dogs = experiment: 13-week oral repeated dose toxicity study; type: in vivo
[3] = tested on: leukemia cells expressing FLT3-ITD; experiment: apoptosis induction; type: cell-based
rats = experiment: 13-week oral repeated dose toxicity study; type: in vivo
[4] = tested on: FLT3 receptor signaling in human AML cells expressing FLT3-ITD; experiment: inhibition of FLT3 receptor signaling; type: cell-based; conditions: 0.1, 1 and 10 nM, dose response
[5] = tested on: adult patients with R/R AML having a FLT3-ITD, -D835, or -I836 mutation; experiment: ADMIRAL phase 3 trial; type: in vivo, human
FLT3 phosphorylation = FLT3 phosphorylation (Homo sapiens, UniProt P36888); experiment: ex vivo FLT3 plasma inhibitory assay; type: cell-based; conditions: by day 8 of cycle 1, doses of ≥ 80 mg
[6] = target: tropomyosin receptor kinase A (TRKA) (Homo sapiens, UniProt P04629); experiment: in vitro pharmacology assay, kinase inhibition; type: biochemical; conditions: at 5 nM
[7] = target: nucleophosmin 1-anaplastic lymphoma kinase (NPM1-ALK) (Homo sapiens, UniProt P06748+Q9UM73); experiment: in vitro pharmacology assay, kinase inhibition; type: biochemical
adults with R/R AML = type: in vivo
[8] = first 30 days, both low and high intensity comparison groups
[9] = preselected high intensity chemotherapy subgroup, first 30 days
[10] = preselected low intensity chemotherapy subgroup, first 30 days

Chain of UniProt Q12809 (Q12809 whole entry): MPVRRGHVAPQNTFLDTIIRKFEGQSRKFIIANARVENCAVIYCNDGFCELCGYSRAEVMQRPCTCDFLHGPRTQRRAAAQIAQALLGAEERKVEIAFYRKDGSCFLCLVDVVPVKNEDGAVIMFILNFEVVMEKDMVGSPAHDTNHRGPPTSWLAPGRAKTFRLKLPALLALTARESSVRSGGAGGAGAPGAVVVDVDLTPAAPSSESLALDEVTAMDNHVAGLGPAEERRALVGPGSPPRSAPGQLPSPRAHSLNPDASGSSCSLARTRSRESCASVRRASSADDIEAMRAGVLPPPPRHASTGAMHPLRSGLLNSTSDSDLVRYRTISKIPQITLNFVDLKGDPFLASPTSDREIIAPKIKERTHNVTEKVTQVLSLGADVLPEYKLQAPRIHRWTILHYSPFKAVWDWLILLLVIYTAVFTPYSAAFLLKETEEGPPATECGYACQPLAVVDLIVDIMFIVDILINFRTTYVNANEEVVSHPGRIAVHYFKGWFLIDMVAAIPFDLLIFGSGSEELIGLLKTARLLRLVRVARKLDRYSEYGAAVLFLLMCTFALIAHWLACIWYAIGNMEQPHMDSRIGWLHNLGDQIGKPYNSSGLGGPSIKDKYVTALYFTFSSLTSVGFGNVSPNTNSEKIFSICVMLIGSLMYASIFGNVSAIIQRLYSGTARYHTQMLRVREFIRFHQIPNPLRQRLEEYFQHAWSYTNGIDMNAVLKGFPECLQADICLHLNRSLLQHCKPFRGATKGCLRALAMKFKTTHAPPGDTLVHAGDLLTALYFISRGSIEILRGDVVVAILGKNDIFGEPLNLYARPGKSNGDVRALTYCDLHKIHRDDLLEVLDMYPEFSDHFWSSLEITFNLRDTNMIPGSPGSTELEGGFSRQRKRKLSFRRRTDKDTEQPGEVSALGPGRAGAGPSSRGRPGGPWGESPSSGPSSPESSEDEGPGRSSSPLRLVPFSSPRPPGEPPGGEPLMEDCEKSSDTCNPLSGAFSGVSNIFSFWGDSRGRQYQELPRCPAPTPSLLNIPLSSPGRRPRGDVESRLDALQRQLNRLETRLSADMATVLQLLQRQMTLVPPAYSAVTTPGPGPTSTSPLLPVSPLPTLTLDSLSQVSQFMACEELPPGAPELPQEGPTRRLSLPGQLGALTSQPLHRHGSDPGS

SMILES: CCc1nc(C(N)=O)c(Nc2ccc(N3CCC(N4CCN(C)CC4)CC3)c(OC)c2)nc1NC1CCOCC1 [gilteritinib]
- CR+CRh rate (patients with R/R AML; 80 mg dose level): 25.0%
- CR+CRh rate (patients with R/R AML; 120 mg dose level): 23.2%
- CR+CRh rate (patients with R/R AML; 200 mg dose level): 19.1%
- CR+CRh rate (patients with R/R AML; 300 mg dose level): 30%
- patients requiring dose interruption (patients with R/R AML; human, in vivo): 19%
- maximum tolerated dose (MTD) (patients with R/R AML; oral, doses 20 to 450 mg investigated): 300 mg once daily
- composite complete remission (CRc) rate (patients with R/R AML; steady-state Ctrough 100 to 500 ng/mL): 48%
- composite complete remission (CRc) rate (patients with R/R AML; steady-state Ctrough <100 ng/mL): 22%
- composite complete remission (CRc) rate (patients with R/R AML; steady-state Ctrough >500 ng/mL): 50%
- IC50 (hERG currents): 16 µM
- IC50 (hERG currents; same value in mass units): 16 µM
- earliest onset of differentiation syndrome after initiation of therapy [1]: 2 days
- ALT increased leading to dose interruption ([1]; 3.6 months): 6%
- ALT increased resulting in discontinuation ([1]; 3.6 months): 2%
- AST increased leading to dose interruption ([1]; 3.6 months): 6%
- AST increased resulting in discontinuation ([1]; 3.6 months): 2%
- DS cases grade 1–2 ([1]; 3.6 months): 55%
- DS cases grade 3–4 ([1]; 3.6 months): 36%
- DS patients who recovered after treatment or dose interruption ([1]; 3.6 months): 82%
- differentiation syndrome, FDA analysis ([1]; 3.6 months): 3%
- differentiation syndrome, investigator-reported adverse event ([1]; 3.6 months): 1%
- fever leading to dose interruption ([1]; 3.6 months): 4%
- patients who discontinued treatment permanently due to an adverse reaction ([1]; 3.6 months): 7%
- patients with dose reduction due to an adverse reaction ([1]; 3.6 months): 6%
- patients with interruption due to an adverse reaction ([1]; 3.6 months): 29%
- posterior reversible encephalopathy syndrome (PRES) ([1]; 3.6 months): 1%
- inhibition at 0.001 µM [2]: > 50%
- safety with concomitant strong or moderate CYP3A inhibitors (CYP3A4; Study 2215-CL-0101): not associated with clinically significant safety issues
- decrease of gilteritinib exposure (CYP3A4; co-administration of rifampicin (a strong CYP3A inducer)): approximately 70%
- metabolism (CYP3A4; in vivo): primarily metabolized by CYP3A4
- activity against F691 TKD mutation (F691 TKD mutation): not active
- additional organs with toxicities (dogs): liver in rats and dogs, and male reproductive organs in dogs only
- target organs of toxicity (dogs; 13-week oral repeated dose): the eye and the kidney
- apoptosis [3]: induced apoptosis
- additional organs with toxicities (rats): liver
- target organs of toxicity (rats; 13-week oral repeated dose): the eye and the kidney
- phosphorylation of ERK compared to control [4]: 1%
- phosphorylation of STAT5 compared to control [4]: 0%
- phosphorylation of protein kinase B (AKT) compared to control [4]: 9%
- patients who proceeded to HSCT after treatment ([5]; 63/247 gilteritinib, 12/124 chemotherapy): 26%
- CR, n (response rate) (95% confidence interval) ([5]; final analysis): 14%
- CR/CRh, n (response rate) (95% confidence interval) ([5]; final analysis): 57 (23%) (18%, 29%)
- CRh, n (response rate) (95% confidence interval) ([5]; final analysis): 22 (9%) (6%, 13%)
- DOCR+CRh, median (range) duration of CR plus CRh ([5]; final analysis): 7.4 (<0.1+, 23.1+) months
- DOCR, median (range) duration of CR ([5]; final analysis): 14.8 (0.6, 23.1+) months
- DOCRh, median (range) duration of CRh ([5]; final analysis): 2.9 (<0.1+, 9.5+) months
- CR rate ([5]; final analysis, FLT3-TKD only subgroup (n=31)): 10%
- CR rate ([5]; final analysis, patients preselected for low intensity chemotherapy): 12%
- CR rate ([5]; final analysis, patients preselected to receive high intensity chemotherapy): 15%
- CR, n (response rate) (95% confidence interval) ([5]; final analysis, listed as Gilteritinib): 35 (14%) (10%, 19%)
- rate of CR+CRh ([5]; first interim analysis, primary analysis population of 142 patients, lower 95% CI boundary 15%): 22%
- event-free survival hazard ratio ([5]; in vivo): 0.79
- median overall survival ([5]; in vivo): 9.3 months
- CR, n (response rate) (95% confidence interval) ([5]; interim analysis): 16 (12%) (7%, 18%)
- CRh, n (response rate) (95% confidence interval) ([5]; interim analysis): 13 (9%) (5%, 16%)
- DOCR+CRh, median (range) duration of CR plus CRh ([5]; interim analysis): 4.6 months
- DOCR, median (range) duration of CR ([5]; interim analysis): 8.6 (1.0, 13.8) months
- DOCRh, median (range) duration of CRh ([5]; interim analysis): 2.9 (0.1, 15.8+) months
- patients independent at baseline who remained transfusion independent ([5]; interim analysis, 32 patients, any 56-day post-baseline period): 53%
- CR/CRh, n (response rate) (95% confidence interval) ([5]; interim analysis, N=138 FLT3 mutation positive by companion diagnostic): 21%
- DOCR+CRh, median (range) duration of CR plus CRh ([5]; interim analysis, listed as Gilteritinib): 4.6 (0.1, 15.8+) months
- median time to first CR or CRh ([5]; interim analysis, range 0.9–9.6 months): 3.6 months
- CR rate ([5]; patients with unfavorable risk cytogenetics (1/26 vs 3/11)): 4%
- inhibition of FLT3 phosphorylation (FLT3 phosphorylation): greater than 90%
- inhibition [6]: greater than half maximal inhibition
- inhibition at 0.001 µM [7]: > 50%
- patients with postbaseline QTcF > 480 msec (adults with R/R AML; 9/246): 4%
- Grade ≥ 3 laboratory abnormality: decreased sodium (adults with R/R AML; [8]): 5%
- Grade ≥ 3 laboratory abnormality: increased ALT (adults with R/R AML; [8]): 6%
- Grade ≥ 3 laboratory abnormality: increased AST (adults with R/R AML; [8]): 5%
- patients with maximum post-baseline QTcF of > 500 msec (adults with R/R AML; in vivo): < 1%
- patients with maximum post-baseline increase in QTcF of > 30 to ≤ 60 msec (adults with R/R AML; in vivo): 25%
- patients with post-baseline increase in QTcF of > 60 msec (adults with R/R AML; in vivo): 5%
- Abdominal pain, Any grade (adults with R/R AML; [9]): 11%
- Abdominal pain, Grade ≥ 3 (adults with R/R AML; [9]): 0%
- Constipation, Any grade (adults with R/R AML; [9]): 20%
- Constipation, Grade ≥ 3 (adults with R/R AML; [9]): 0%
- Cough, Any grade (adults with R/R AML; [9]): 12%
- Cough, Grade ≥ 3 (adults with R/R AML; [9]): 1%
- Dizziness, Any grade (adults with R/R AML; [9]): 11%
- Dizziness, Grade ≥ 3 (adults with R/R AML; [9]): 0%
- Dyspnea, Any grade (adults with R/R AML; [9]): 13%
- Dyspnea, Grade ≥ 3 (adults with R/R AML; [9]): 1%
- Edema, Any grade (adults with R/R AML; [9]): 13%
- Edema, Grade ≥ 3 (adults with R/R AML; [9]): 0%
- Fatigue/malaise, Any grade (adults with R/R AML; [9]): 24%
- Fatigue/malaise, Grade ≥ 3 (adults with R/R AML; [9]): 1%
- Febrile neutropenia, Any grade (adults with R/R AML; [9]): 17%
- Febrile neutropenia, Grade ≥ 3 (adults with R/R AML; [9]): 17%
- Fever, Any grade (adults with R/R AML; [9]): 17%
- Fever, Grade ≥ 3 (adults with R/R AML; [9]): 1%
- Headache, Any grade (adults with R/R AML; [9]): 11%
- Headache, Grade ≥ 3 (adults with R/R AML; [9]): 0%
- Mucositis, Any grade (adults with R/R AML; [9]): 12%
- Mucositis, Grade ≥ 3 (adults with R/R AML; [9]): 0%
- Myalgia/arthralgia, Any grade (adults with R/R AML; [9]): 38%
- Myalgia/arthralgia, Grade ≥ 3 (adults with R/R AML; [9]): 1%
- Nausea, Any grade (adults with R/R AML; [9]): 15%
- Nausea, Grade ≥ 3 (adults with R/R AML; [9]): 0%
- Neuropathy, Any grade (adults with R/R AML; [9]): 13%
- Neuropathy, Grade ≥ 3 (adults with R/R AML; [9]): 0%
- Rash, Any grade (adults with R/R AML; [9]): 15%
- Rash, Grade ≥ 3 (adults with R/R AML; [9]): 1%
- Transaminase increased, Any grade (adults with R/R AML; [9]): 31%
- Transaminase increased, Grade ≥ 3 (adults with R/R AML; [9]): 10%
- Constipation, Any grade (adults with R/R AML; [10]): 13%
- Constipation, Grade ≥ 3 (adults with R/R AML; [10]): 1%
- Diarrhea, Any grade (adults with R/R AML; [10]): 12%
- Diarrhea, Grade ≥ 3 (adults with R/R AML; [10]): 0%
- Dyspnea, Any grade (adults with R/R AML; [10]): 11%
- Dyspnea, Grade ≥ 3 (adults with R/R AML; [10]): 3%
- Edema, Any grade (adults with R/R AML; [10]): 20%
- Edema, Grade ≥ 3 (adults with R/R AML; [10]): 1%
- Fatigue/malaise, Any grade (adults with R/R AML; [10]): 21%
- Fatigue/malaise, Grade ≥ 3 (adults with R/R AML; [10]): 4%
- Febrile neutropenia, Any grade (adults with R/R AML; [10]): 27%
- Febrile neutropenia, Grade ≥ 3 (adults with R/R AML; [10]): 26%
- Fever, Any grade (adults with R/R AML; [10]): 11%
- Fever, Grade ≥ 3 (adults with R/R AML; [10]): 0%
- Mucositis, Any grade (adults with R/R AML; [10]): 20%
- Mucositis, Grade ≥ 3 (adults with R/R AML; [10]): 1%
- Myalgia/arthralgia, Any grade (adults with R/R AML; [10]): 22%
- Myalgia/arthralgia, Grade ≥ 3 (adults with R/R AML; [10]): 2%
- Nausea, Any grade (adults with R/R AML; [10]): 10%
- Nausea, Grade ≥ 3 (adults with R/R AML; [10]): 0%
- Rash, Any grade (adults with R/R AML; [10]): 10%
- Rash, Grade ≥ 3 (adults with R/R AML; [10]): 2%
- Transaminase increased, Any grade (adults with R/R AML; [10]): 36%
- Transaminase increased, Grade ≥ 3 (adults with R/R AML; [10]): 9%
- median time to postbaseline QTcF > 480 msec (adults with R/R AML; range 8 to 168 days): 43 days

Source: paper PMC8506653 (Clinical cancer research : an official journal of the …, 2021)
